Some of the results follow. Sequences were assembled here from the parent chain. Inactive controls read about 0.05.
B1: TEV protease; numbered along this chain (parent)
chain: MGESLFKGPRDYNPISSSICHLTNESDGHTTSLYGIGFGPFIITNKHLFRRNNGTLVVQSLHGVFKVKDTTTLQQHLVDGRDMIIIRMPKDFPPFPQKLKFREPQREERICLVTTNFQTKSMSSMVSDTSCTFPSGDGIFWKHWIQTKDGQCGSPLVSTRDGFIVGIHSASNFTNTNNYFTSVPKNFMELLTNQEAQQWVSGWRLNADSVLWGGHKVFMVKPEEPFQPVKEATQL

Variants of: B1
Test: raw area under fraction-flipped curve 0-4 h after induction (AUC4h, not background-subtracted), DNA-recorder readout of cleavage of the substrate (dimensionless); higher = more cleavage of the substrate by the protease variant
Details: temperature: 34 °C; time window: 0-4 h after rhamnose induction
Protocol: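 In vivo DNA recorder in E. coli TOP10(DE3) ΔrhaA at 34 °C. Each TEVp single-site mutant (parent TEVp 0) is paired with a single-site variant of the 7-mer TEVs (canonical ENLYFQ|S). The substrate sits between flexible linkers in a Bxb1-sfGFP-TEVs-SsrA fusion, so cleavage stabilises Bxb1 and speeds flipping of a recombination array, read by NGS. The value is the raw area under the fraction-flipped curve over 0-4 h after rhamnose induction (AUC4h), with ≥20 reads per time point. It is not background-subtracted; inactive controls average about 0.047.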
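Further: Bxb1 expression induced with 0.2% (w/v) L-rhamnose at OD600 near 0.5, cultures sampled hourly, flipped fraction per protease–substrate barcode pair counted by paired-end Illumina sequencing.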

Row | Variant | area with substrate ENLYFAS | area with substrate ENLYFCS | area with substrate ENLYFFS | area with substrate ENLYFHS | area with substrate ENLYFIS | area with substrate ENLYFKS | area with substrate ENLYFLS | area with substrate ENLYFMS | area with substrate ENLYFRS | area with substrate ENLYFTS | area with substrate ENLYFVS | area with substrate ENLYFYS | area with substrate ENLYFDS | area with substrate ENLYFES | area with substrate ENLYFNS | area with substrate ENLYFPS | area with substrate ENLYFSS | area with substrate ENLYFWS | area with substrate ENLYFGS
1 | S123M | 0.0643 | 0.0501 | 0.086 | 0.0576 | 0.0596 | 0.0548 | 0.0781 | 0.0721 | 0.0818 | 0.0309 | 0.0463 | 0.0525 | – | – | – | – | – | – | –
2 | S124W | 0.0494 | – | 0.0729 | 0.079 | 0.0616 | – | 0.0598 | – | 0.047 | – | 0.0631 | – | 0.0503 | 0.0461 | 0.0507 | 0.0654 | – | – | –
3 | M125T | 0.0672 | 0.0486 | 0.0792 | 0.0721 | 0.0593 | 0.0581 | 0.0607 | 0.0571 | 0.0605 | – | 0.0542 | – | 0.0548 | 0.074 | 0.0604 | 0.0596 | 0.0604 | 0.0564 | –
4 | M125V | 0.0597 | 0.0703 | 0.0652 | 0.06 | 0.0675 | – | – | 0.0813 | 0.0743 | 0.0626 | – | – | – | 0.0655 | 0.058 | 0.0556 | – | 0.0645 | –
5 | V126W | 0.0584 | 0.0569 | 0.0697 | 0.0629 | 0.0515 | 0.0631 | 0.0745 | – | 0.0671 | 0.0572 | 0.0611 | 0.0583 | – | 0.0585 | 0.0607 | 0.0608 | 0.062 | 0.0595 | –
6 | S127D | 0.0491 | – | 0.0203 | – | 0.0616 | – | 0.0768 | 0.0694 | – | 0.0726 | 0.0469 | – | 0.053 | 0.0667 | 0.0574 | 0.0629 | 0.061 | 0.0608 | –
7 | S127P | 0.0592 | – | 0.0645 | 0.0588 | 0.0542 | – | 0.0132 | 0.0691 | – | 0.0494 | 0.0552 | 0.0511 | – | 0.0772 | – | 0.057 | – | 0.0595 | –
8 | T129I | 0.0531 | – | 0.027 | – | 0.0549 | 0.0534 | 0.0797 | 0.07 | 0.0681 | – | 0.0611 | 0.0397 | 0.0605 | 0.0688 | – | – | – | – | 0.0773
9 | T129Q | 0.0312 | – | 0.0682 | 0.0414 | 0.0588 | 0.0701 | 0.0437 | 0.0734 | – | – | 0.0621 | 0.04 | – | – | 0.0766 | 0.0604 | – | 0.0616 | –
10 | T129W | 0.0381 | 0.0581 | 0.0833 | 0.0516 | 0.056 | 0.0628 | 0.0586 | 0.0631 | 0.065 | 0.0795 | – | 0.0585 | – | 0.0569 | 0.0717 | 0.0574 | – | 0.0567 | 0.0656
11 | T132V | 0.0573 | 0.0654 | 0.0675 | 0.0647 | 0.056 | 0.0565 | 0.0574 | 0.0641 | – | 0.0606 | 0.0535 | 0.0501 | 0.0625 | 0.0476 | 0.0681 | 0.0641 | 0.0663 | 0.0493 | –
12 | S135A | 0.0531 | 0.0753 | 0.0657 | 0.0513 | 0.0583 | 0.065 | 0.0674 | 0.0612 | 0.0679 | 0.0812 | 0.0539 | 0.0604 | 0.0656 | 0.0686 | – | 0.0574 | – | – | –
13 | D137N | 0.0604 | 0.0858 | 0.067 | 0.062 | 0.0633 | 0.0928 | 0.0779 | 0.0628 | 0.0443 | 0.0657 | 0.0635 | 0.0512 | 0.0747 | 0.0628 | 0.0657 | 0.0568 | 0.008 | 0.0543 | 0.057
14 | D137R | 0.06 | 0.0666 | 0.061 | – | 0.0684 | 0.0657 | 0.0909 | 0.0666 | 0.0626 | 0.0622 | – | – | – | – | 0.0827 | 0.065 | – | 0.0582 | 0.0707
15 | I139G | 0.0692 | 0.0636 | 0.0771 | 0.066 | 0.0589 | 0.041 | 0.0592 | 0.0596 | – | – | 0.0639 | – | – | – | – | 0.0498 | – | – | 0.0374
16 | I139S | 0.065 | 0.0585 | 0.0641 | – | 0.0554 | – | 0.0864 | – | – | 0.0551 | 0.0642 | 0.0665 | 0.0543 | – | – | 0.0518 | – | 0.0568 | –
17 | F140K | 0.0557 | 0.0762 | 0.0539 | – | 0.0631 | 0.0585 | 0.0816 | 0.0551 | 0.0589 | 0.0859 | – | 0.0537 | – | 0.0332 | 0.0501 | 0.0717 | – | – | –
18 | W141M | 0.0583 | 0.0572 | 0.0765 | 0.0315 | 0.0553 | – | 0.0565 | 0.0548 | 0.04 | 0.05 | 0.0491 | – | – | 0.0576 | 0.0671 | 0.0395 | – | – | 0.0415
19 | K142E | 0.0652 | 0.0444 | 0.0513 | 0.0695 | 0.0552 | 0.0682 | 0.0245 | 0.0653 | – | 0.0755 | 0.0619 | 0.0673 | 0.06 | 0.0619 | 0.106 | 0.0625 | 0.0537 | 0.0593 | –
20 | K142F | 0.0584 | 0.0423 | 0.0673 | 0.0594 | 0.0565 | – | – | 0.0705 | – | 0.0678 | 0.0564 | 0.0576 | – | 0.0889 | 0.0697 | 0.06 | 0.0618 | 0.049 | –
21 | K142T | 0.0433 | 0.0694 | 0.0685 | 0.0637 | 0.0404 | – | – | 0.0623 | 0.0643 | 0.0623 | – | 0.0549 | 0.0488 | 0.0582 | 0.0538 | 0.0614 | 0.06 | 0.0498 | 0.0514
22 | H143A | 0.057 | – | 0.0746 | 0.0631 | 0.0533 | 0.0646 | 0.0622 | 0.0662 | 0.0642 | 0.0624 | 0.0641 | – | 0.0527 | 0.0686 | 0.0612 | 0.0559 | 0.0683 | 0.0485 | 0.0684
23 | H143P | 0.0583 | 0.0567 | 0.0649 | – | 0.0492 | – | – | 0.0559 | 0.051 | 0.0594 | – | 0.0525 | 0.0361 | 0.0471 | 0.0577 | 0.0671 | 0.0674 | 0.0511 | –
24 | I145D | 0.0602 | 0.0432 | 0.0604 | 0.0495 | – | 0.0399 | – | 0.0813 | – | 0.057 | 0.0337 | – | 0.062 | 0.0555 | – | 0.0602 | 0.0617 | 0.0492 | –
25 | Q146R | 0.0638 | – | 0.0723 | 0.0662 | 0.064 | 0.0468 | – | 0.0649 | 0.0564 | 0.0476 | – | – | 0.0585 | 0.0567 | 0.0747 | 0.0526 | 0.0555 | 0.0618 | –

Source: the supplement of paper PMC12217912
